The results in this text go back to the RNAGym collection of RNA variant scans (doi:10.1073/pnas.2313332121).

Variants at the background level are over-represented here.

B1: TPR 5TU (parent)
chain: GGAUCUUCUCGAUCUAACAAAAAAGACAAAUCUGCCACAAAGCUUGAGAGCAUCUUCGGAUGCAGAGGCGGCAGCCUUCGGUGGCGCGAUAGCGCCAACGUUCUCAACUAUGACACGCAAAACGCGUGCUCCGUUGAAUGGAGUUUAUCAUG

In this data set the parent is B1. The data set can be described thus: polymerase ribozyme fitness, log enrichment relative to wild type (log ratio); higher = more active; in vitro selection for triplet polymerase activity. In short, it runs like this:
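Streptavidin-bead capture of gel-excised extended constructs, followed by RT-PCR, closed a single triplicate in vitro selection round. That round began by annealing PCR-built, transcribed mutant libraries of each subunit of a heterodimeric triplet polymerase ribozyme with a biotinylated primer, the partner subunit and triplets, then incubating them frozen at −7 °C. After Illumina sequencing of inputs and outputs, genotypes needed ≥10 input reads and ≥1 read per output. Fitness is the base-2 logarithm of genotype enrichment over wild-type enrichment, using inverse-variance-weighted replicate averages.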
C38U A41U G50C C75G A107U: the “polymerase ribozyme fitness (log ratio)” value was no more than -4.2.
For the variant C38U G58U G100C, the “polymerase ribozyme fitness (log ratio)” value is no more than -4.2.
The value for A39G U148A U151A was no more than -4.2; that for A39U C43U C96A C103A C105A A147C was no more than -4.2; that for C38U U101G U135A was -0.00114.
Turning to C38G U44A G65C, the “polymerase ribozyme fitness (log ratio)” value is no more than -4.2.
Then A39C A64C, with no more than -4.2; and A39G G48A U56A C76A C79U C105U, with no more than -4.2.
Then A39G A40G A41C G94A A119U, with no more than -4.2; and A39C A52C G92A C96A, with no more than -4.2; and A39C A64G C75G C85U G124A, with no more than -4.2.
As to C38U G58A G86A C93U C96A C131A, the “polymerase ribozyme fitness (log ratio)” value is -2.97.
Then C38G G50C G88C U102G U104G U145G U148G, with no more than -4.2; and A39C C57A C116U U139C G140U, with no more than -4.2.
The value for A39G C87G G94A U148G was no more than -4.2.
Turning to A40C C57U C75U G86A A119U U135A, the “polymerase ribozyme fitness (log ratio)” value was no more than -4.2.
Consider C38U C96A G141A, for which the “polymerase ribozyme fitness (log ratio)” value is -0.0442.
The value for A39C A47U G48C G68A C85U A137G U145A was no more than -4.2; that for A39G C99G C108U was no more than -4.2; that for A39C G133U U148G was no more than -4.2.
Then C38G G86U C118U, with -2.
With A39U G83U A150C, the “polymerase ribozyme fitness (log ratio)” value is no more than -4.2.
Then A39C G42U C93U A97U A137U G140C U146G C149A, with no more than -4.2; and A40C C85G G92A U130A, with no more than -4.2; and C38G C87U G100C A137U C149G, with no more than -4.2.
Consider C38U C51U G59A A91C G141C U146G, for which the “polymerase ribozyme fitness (log ratio)” value is no more than -4.2.
Take C38U A52G G71C G88A C96G G100A A106C U111A A137C: the “polymerase ribozyme fitness (log ratio)” value is no more than -4.2.
With C38U A73U U77A C85A C99G G124C A142G, the “polymerase ribozyme fitness (log ratio)” value is no more than -4.2.
On to A39U G141U, for which the “polymerase ribozyme fitness (log ratio)” value was -1.56.
On to A40C C87A A89G, for which the “polymerase ribozyme fitness (log ratio)” value is no more than -4.2.
The value for A39U A66C C72U G86U A89U C103A C123U was no more than -4.2; that for A39C A40G G62C C103A G143U was no more than -4.2; that for A39G G42C A64U G84C C85U C103G C108U G117C A147G was no more than -4.2.
The value for A40C A49C G81U A98G was no more than -4.2.
In the case of A39C A49U U56A, the “polymerase ribozyme fitness (log ratio)” value is no more than -4.2.
Take C38G U55A C96A A150G: the “polymerase ribozyme fitness (log ratio)” value was -2.63.
The value for C38U C85U U146G was -0.571.
Then A39U C54U C93U A107U C108U U109A G140C, with no more than -4.2; and A40C C85A U102G G143A, with no more than -4.2; and A40C C51U C93G A113C A115U, with no more than -4.2.
Then A39C C79A A91C U101G G143C, with no more than -4.2; and C38U A73G U101A, with -0.277.
Take A39C C87U G94U U101C A147U: the “polymerase ribozyme fitness (log ratio)” value is no more than -4.2.
For C38U G88U A91G U109G U134A, the “polymerase ribozyme fitness (log ratio)” value is no more than -4.2.
Then A39U C87G, with no more than -4.2; and A40C A49C C96U C99U C114U C123U, with no more than -4.2.
A39G C54G G94C C105G G133C: the “polymerase ribozyme fitness (log ratio)” value is no more than -4.2.
The value for C38U G42C A142G was no more than -4.2.
The value for A39U C54U C87A C99A G133U was no more than -4.2; that for C38U U78G C108U U148A was no more than -4.2.
Take A40C C43A C95U: the “polymerase ribozyme fitness (log ratio)” value was no more than -4.2.
Turning to C38U G42C A52U U61G G133U, the “polymerase ribozyme fitness (log ratio)” value is no more than -4.2.
As to A39G U53A C85G A106U U144C, the “polymerase ribozyme fitness (log ratio)” value is no more than -4.2.
On to A40C A60U G70A C103A A107G, for which the “polymerase ribozyme fitness (log ratio)” value was no more than -4.2.
The value for A39G U56A C75A G84C A89G C118G U130A was no more than -4.2.
As to C38U G58C A91C G94A A97G G141A, the “polymerase ribozyme fitness (log ratio)” value was no more than -4.2.
In the case of A40C A41G C108U C114U U139G, the “polymerase ribozyme fitness (log ratio)” value is no more than -4.2.
Regarding C38U G50A, the “polymerase ribozyme fitness (log ratio)” value was -2.15.
The value for C38U C57G C76A G81U A89C A91U was no more than -4.2; that for A39G A47U C54G C75U G92C was no more than -4.2; that for A40C C96U A150G was -1.3.
For the variant A39G G94A C99U A106C G128A, the “polymerase ribozyme fitness (log ratio)” value was no more than -4.2.
As for A39U C51U U77C G94U A115C, the “polymerase ribozyme fitness (log ratio)” value was no more than -4.2.
Regarding A39U A40G A73C G84U C125U G126C C149A, the “polymerase ribozyme fitness (log ratio)” value is no more than -4.2.
The value for C38U C43U U44A C51U C93U was no more than -4.2.
The value for A39U C54U G67C C116G C123U was no more than -4.2; that for A39C C93G C103A C114A was no more than -4.2.
Then C38U G48A A60C C72G C96A C99U C114G U139G U148G, with no more than -4.2; and A39U A47C U78C C93U C95G, with no more than -4.2.
As to A39U A49C A60C G141C, the “polymerase ribozyme fitness (log ratio)” value is no more than -4.2.
With C38G C85U C108A G112C, the “polymerase ribozyme fitness (log ratio)” value is no more than -4.2.
As to A40C C75A A89C G92U, the “polymerase ribozyme fitness (log ratio)” value is no more than -4.2.
In the case of C38G G83C C93A A98G C129U, the “polymerase ribozyme fitness (log ratio)” value was no more than -4.2.
Take A39U G46C G74C: the “polymerase ribozyme fitness (log ratio)” value is no more than -4.2.
As to A39C C54U G86A C96U G128A U130A U139A, the “polymerase ribozyme fitness (log ratio)” value is no more than -4.2.
Take A39C A49U C85G A89C C103G: the “polymerase ribozyme fitness (log ratio)” value was no more than -4.2.
Consider A39U G42C U53A C95U, for which the “polymerase ribozyme fitness (log ratio)” value is no more than -4.2.
Then A39C U55A C76U C87G, with no more than -4.2; and A40C C69A G86U C105G, with no more than -4.2; and A39C G65C U134A U145C, with no more than -4.2.
Turning to A39U A52G U78A G86A A91U, the “polymerase ribozyme fitness (log ratio)” value is no more than -4.2.
Then A39C G81A G94U A106G A110C G140U, with -4.04; and A39U A41U G81U C93A U146G, with no more than -4.2.
